Drawing on PubChem BioAssay AID1346428 (National Center for Advancing Translational Sciences (NCATS), 2018), this text covers activation for 82 compounds.

Several values for one entry are separate records, joined by “and”; a condition that tells them apart may be missing. Equal entries are not always repeated. In all, about 48,000 compounds went through this assay and about 1,200 (2.5%) were called active. Roughly 2% stayed inconclusive and do not appear here.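 Rule for the calls: active = activation of at least 60% and not above a set upper limit (about 1 call in 100 departs from these limits); inconclusive = activation of 40% to 60%, or above that upper limit; inactive = activation under 40%.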 Some of the results follow.

UniProt O75388, sequence (O75388 whole entry, looked up): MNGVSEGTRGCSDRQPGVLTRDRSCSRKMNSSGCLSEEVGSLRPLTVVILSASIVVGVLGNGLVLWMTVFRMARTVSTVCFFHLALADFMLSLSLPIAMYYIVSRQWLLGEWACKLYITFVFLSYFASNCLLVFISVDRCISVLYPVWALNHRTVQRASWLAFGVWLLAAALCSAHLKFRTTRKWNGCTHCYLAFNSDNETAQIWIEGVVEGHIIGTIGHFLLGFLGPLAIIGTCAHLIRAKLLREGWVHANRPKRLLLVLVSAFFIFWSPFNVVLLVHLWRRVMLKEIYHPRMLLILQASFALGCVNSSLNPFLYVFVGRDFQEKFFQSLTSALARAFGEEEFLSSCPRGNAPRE

The target in this assay is Probable G-protein coupled receptor 32 (Homo sapiens) (UniProt O75388). The assay can be described thus: qHTS for Agonists of Human Resolvin D1 Receptor DRV1. Note: 0% is about no effect. The following applies: CHO-K1 GPR32 beta-arrestin PathHunter luminescence, 90 min; at 76.9 µM; stronger effect = higher value; zero percent set by DMSO-only wells. The procedure, abridged:
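PathHunter beta-arrestin recruitment in CHO-K1 cells stably expressing ProLink-tagged GPR32. Cells were exposed to compound for 90 min at 37 C, then chemiluminescence was read after 1 h detection at ambient temperature; DMSO served as basal control.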
(qHTS replaces the single test concentration by a dilution series.)
As for `CC1CCN(c2ccc(-c3cccc(NS(=O)(=O)c4ccc(F)cc4F)c3)nn2)CC1`, the activation was inactive: -0.288%.
For `CC1CCN(C(=O)CSc2nc(-c3ccc(F)cc3)cc(C(F)(F)F)n2)CC1`, the activation was inactive: -4.23%.
As for `CCOC(=O)c1sc(NC(=O)c2c(-c3ccccc3)c(-c3ccccc3)nn(C)c2=O)nc1C`, the figure is inactive: -14%; as for `CCc1ccc(Nc2nc3ccccc3nc2NS(=O)(=O)c2ccccc2)cc1`, inactive: 33.1%; as for `Cc1cccc(-n2c(=O)c3ccccc3n(Cc3ccc(F)cc3)c2=O)c1`, inactive: -12.8%.
Take `Cc1[nH]c(=O)c(C#N)cc1-c1ccc2nccn2c1`: the activation is inactive: -2.48% and inactive: -3.39%.
Take `COc1ccc(N(C)C(=O)Cn2cc(S(=O)(=O)N3CCN(c4ccccc4F)CC3)c3ccccc3c2=O)c(OC)c1`: the activation was inactive: -17.7%.
Regarding `COc1ccc(NC(=O)C2=C(C)Nc3nc(SCc4ccc(Cl)cc4)nn3C2c2cccc(OC)c2OC)cc1` (configuration not stated), the activation is inactive: 8.48%.
For `CCCCOC(=O)c1ccc(NC(=O)c2sc3nc(C)cc(C)c3c2N)cc1`, the activation is inactive: -5.69%.
`O=C(Cn1c(=O)nc(-c2ccccc2)c2ccccc21)Nc1ccc(Cl)cc1F`: the activation was inactive: -8.54%.
The value for `Cc1cc2c(cc1S(=O)(=O)Nc1cc(C(F)(F)F)cc(C(F)(F)F)c1)OCC(=O)N2` was inactive: 45.9%.
The value for `CCCCCCOc1ccc(C2C(=O)N(C3CCCCC3)CC(=O)N2C2CCCCC2)cc1` (configuration not stated) was inactive: -1.53%.
As for `CCN(CC)S(=O)(=O)c1ccc(C(=O)NCCSc2c(-c3ccccc3)[nH]c3ccccc23)cc1`, the figure is inactive: -17.2%; as for `CCC(=O)N1CCc2cc(S(=O)(=O)NCCC(=O)Nc3ccc(N(CC)CC)cc3C)ccc21`, inactive: 19.2%.
On to `Cc1ccc(-c2nn3c(C)nnc3c3ccccc23)cc1S(=O)(=O)NCC(C)O` (configuration not stated), for which the activation was inactive: -12%.
Take `O=C(c1ccc2c(c1)N(Cc1ccc(F)cc1)C(=O)c1ccccc1S2(=O)=O)N1CCCCC1`: the activation is inactive: -11.4%.
The value for `COc1cc(NC(=O)CSc2c3c(nc4ccccc24)CCC3)cc(OC)c1OC` was inactive: -3.58%; that for `NC(=O)c1cc(S(=O)(=O)N2CCN(c3cccc(C(F)(F)F)c3)CC2)cs1` was inactive: -5.35%; that for `O=C(CSc1nc2ccccc2nc1Cc1ccc(Cl)cc1)N1CCN(c2ccccc2)CC1` was inactive: -6.06%.
As for `O=C(CSc1nc(-c2cccc(F)c2)[nH]c1-c1ccccc1)Nc1ccc2c(c1)OCO2`, the figure is inactive: 11.6%; as for `COc1cc(NC(=O)c2cc3cc4ccc(C)cc4nc3o2)cc(OC)c1OC`, inactive: 12.1%.
The value for `CCc1ccccc1N(C)C(=O)C1CCCN(c2ncnc3c2nc2n3CCCCC2)C1` (configuration not stated) was inactive: -5.63%; that for `Cc1ccc(-n2ncc(C(=O)NCc3ccco3)c2C2CCN(C(=O)OC(C)(C)C)CC2)cc1C` was inactive: -27.5%; that for `Cc1c(C(=O)Nc2cc(F)ccc2F)sc2nc(-c3ccc(F)cc3)cn12` was inactive: -11.8%.
As to `CCc1c(C)c2cc3c(c(C)c2oc1=O)OCN(CCc1ccccc1F)C3`, the activation is inactive: 36.9%.
As for `Cc1ccc2c(=O)cc(C(=O)Nc3c(C)n(C)n(-c4ccccc4)c3=O)oc2c1`, the figure is inactive: 4.42%; as for `CCOC(=O)C1(C)C=C(Nc2cccc(C(=O)O)c2)C(=O)N1c1ccccc1` (configuration not stated), inactive: -14.9%.
As for `Cc1ccc(CNC(=O)C(=O)NCC(c2ccc3c(c2)OCO3)N2CCOCC2)cc1` (configuration not stated), the figure is inactive: -17.7%; as for `COc1cc(NC(=O)CSc2nc3nc(C)c(Cc4ccccc4Cl)c(C)n3n2)cc(OC)c1`, inactive: -3.93%; as for `COc1cc(Cl)c(C)cc1NC(=O)c1cnc(N2CCCCC2)c2ccccc12`, inactive: -15.2%.
As for `CCCOc1ccc(CNC(=O)C(NS(=O)(=O)c2cccs2)C(C)C)cc1` (configuration not stated), the figure is inactive: -0.972%; as for `COC(=O)C(CCSC)Nc1ncnc2onc(-c3ccc(F)cc3)c12` (configuration not stated), inactive: -9.2%; as for `CC(C)Cn1c(-c2cccc(Br)c2)nc2ccccc21`, inactive: 11.1%.
For the compound `COc1cc2nc(SCc3ccc(C)cc3)n3nc(CCn4nc(C)cc4C)nc3c2cc1OC`, the activation was inactive: -1.31%.
The value for `CCOc1ccccc1NC(=O)C(=O)Nc1ccc2nc3n(c(=O)c2c1)CCCCC3` was inactive: -15.5%; that for `Cc1cc(C)cc(NC(=O)C(Cc2ccccc2)NS(=O)(=O)c2ccc3c(c2)CCC(=O)N3)c1` (configuration not stated) was inactive: 8.67%; that for `OCc1cnc(SCc2ccccc2F)n1Cc1ccc(F)cc1` was active: 93.9%.
As for `O=C(c1ccccc1)N1c2nc(-c3ccco3)nn2C2(CCCCC2)[C@@H]2CCCC[C@@H]21`, the figure is inactive: -17.6%.
The value for `Cc1cc(C)cc(NC(=O)Cc2noc3ccccc23)c1` was inactive: -7.35%; that for `Cc1cc(C)c(NC(=O)C2CCCN(S(=O)(=O)c3c(C)noc3C)C2)c(C)c1` (configuration not stated) was inactive: 16.2%.
In the case of `Cc1ccccc1OCc1ccc(-c2nc(C#N)c(N3CCN(c4cccc(Cl)c4)CC3)o2)o1`, the activation was inactive: -10.3%.
As for `CCN1CCN(c2oc(-c3ccc(COc4ccccc4C)o3)nc2C#N)CC1`, the activation was inactive: -17.3%.
The value for `O=C(O)c1ccccc1C(=O)Nc1ccc(Br)c2cccnc12` was inactive: -12.4%; that for `COc1ccc(Cn2ccc3nc(C)c(C(=O)Nc4cccc(SC)c4)cc3c2=O)cc1` was inactive: -23%.
As for `Oc1c(C(Nc2ccccn2)c2ccccc2F)ccc2cccnc12` (configuration not stated), the figure is inactive: 1.39%; as for `COc1cccc(CNC(=O)Cn2ncn3nc(-c4cccs4)cc3c2=O)c1`, inactive: 0.091%.
As for `CCCNC(=O)c1ccc2c(c1)nc1n2CCCCC1`, the figure is inactive: -5.47%.
For the compound `Cc1noc(C)c1S(=O)(=O)N(CC(=O)Nc1ccc(F)cc1F)c1ccc(C(C)C)cc1`, the activation was inactive: -5.62%.
As for `Cc1ccc(NC(=O)C2CCN(S(=O)(=O)c3cccc4nsnc34)CC2)cc1F`, the figure is active: 93.3%; as for `COc1ccc(NC(=O)C(=O)NCCc2csc3nc(-c4ccccc4F)nn23)cc1OC`, inactive: -0.389%; as for `CC(=O)c1ccc(NS(=O)(=O)c2ccc3c(c2)NC(=O)CCS3)cc1`, inactive: -9.93%.
As for `CCn1cc2nc(SCc3ccccc3Cl)n(Cc3ccc(OC)cc3)c(=O)c2n1`, the figure is inactive: -13%.
As for `COc1cccc(CNC(=O)c2ccc(-c3nc(CSc4ccccc4)c(C)o3)cc2)c1`, the figure is inactive: 3.86%; as for `COc1ccc(C(Nc2ccccn2)c2ccc3ccc(C)nc3c2O)cc1C` (configuration not stated), active: 89.8%.
For `CCCN(CCC)CCCNC(=O)c1cc2c(=O)n(C)c3ccccc3c2s1`, the activation is inactive: 16.5%.
As for `CC(=O)Nc1ccccc1-c1nc2ccccc2n(C(C)C(=O)Nc2ccccc2C(F)(F)F)c1=O` (configuration not stated), the figure is inactive: -1.52%; as for `COc1ccc(-c2c(C)c3ccc(O)c(CN4CCC(C)CC4)c3oc2=O)cc1OC`, inactive: -32.5%.
As to `Cc1cccc(N2CCN(C3=C(c4ccccc4)C(=O)c4ccccc43)CC2)c1C`, the activation is inactive: 2.15%.
For the compound `COc1cc(OC)c(OC)cc1/C=C/c1nc2cc3ccccc3cc2c(=O)n1-c1ccccc1Br`, the activation was inactive: -27.7%.
As for `Cc1ccc(CNC(=O)c2cc(=O)c3cc(C)ccc3o2)cc1`, the figure is inactive: 28.9%; as for `CN1CCN(c2ncnc3c2cnn3-c2cccc(Cl)c2)CC1`, inactive: 44.4%; as for `COc1cc2c(c(OC)c1)C(c1cccc(F)c1F)CC(=O)N2` (configuration not stated), inactive: 10.1%.
The value for `Cc1ccccc1-c1noc(-c2ccccc2OCC(=O)Nc2cccc([N+](=O)[O-])c2)n1` was inactive: -9.13%.
As for `Cc1cccc(C)c1NC(=O)Cn1nnc(S(=O)(=O)c2ccccc2)c1N`, the figure is inactive: 12.1%.
Turning to `O=C1CN(C(=O)c2ccc(S(=O)(=O)N3CCCC3)cc2)C(c2ccccc2)c2cc(F)ccc2N1` (configuration not stated), the activation is inactive: -13.3%.
As for `N#Cc1c(-c2ccccc2)cc(-c2ccccc2)nc1SCC(O)CS(=O)(=O)Cc1ccc(Cl)cc1` (configuration not stated), the figure is inactive: -2.18%.
Consider `Cc1cc(NC(=O)Cc2ccccc2)cc(-c2nc3ccccc3o2)c1O`, for which the activation is inactive: 29.4%.
Take `CCn1cc(/C=C(\NC(=O)c2cc(OC)c(OC)c(OC)c2)C(=O)NCCCn2ccnc2)c2ccccc21`: the activation was inactive: 21.5%.
As for `CN(C)c1ccc(Nc2ncnc3c2c(-c2ccccc2)cn3-c2cccc(Cl)c2)cc1`, the figure is inactive: -23%.
As for `CCOC(=O)c1cc2c(=O)n3ccccc3nc2n(C(C)C)c1=NC(=O)C(C)(C)Oc1ccc(Cl)cc1`, the figure is inactive: -5.12%; as for `Cc1c(C(=O)NCCN(C)C)oc2c1-c1nn(Cc3cccc(Cl)c3)cc1CC2`, inactive: -12.4%.
As for `COC(=O)c1ccccc1NS(=O)(=O)c1cc2c(cc1C)N(C)CCO2`, the figure is inactive: -6.54%; as for `Cc1cccc(S(=O)(=O)c2cn(Cc3ccccc3)c3cc(N4CCCCC4)c(F)cc3c2=O)c1`, inactive: -12.2%; as for `CCN(Cc1nc(-c2ccc(OC)c(OC)c2)no1)S(=O)(=O)c1ccc(OC)cc1`, inactive: 8.93%.
`COc1ccc(-c2nc3sc(CCNC(=O)c4ccc(Br)o4)c(C)n3n2)cc1`: the activation is inactive: 29.3%.
As for `COc1ccc(CCC(=O)NC2CC(=O)N(c3ccc(F)cc3)C2)cc1` (configuration not stated), the activation is inactive: -29.4%.
The value for `CCN(CC)C(=O)c1c(-c2ccccc2)c(-c2ccccc2)nn(CC)c1=O` was inactive: -17.9%; that for `COc1ccccc1N1CCN(C(=O)CN2C(=O)COc3ccc(S(=O)(=O)N4CCOCC4)cc32)CC1` was inactive: -14.8%.
The value for `O=C(CSc1nc(=O)n(Cc2ccccn2)c2c1CCC2)Nc1ccccc1` was inactive: -15.5%; that for `CN1[C@@H]2CC(OC(=O)[C@H](CO)c3ccccc3)C[C@H]1[C@@H]1O[C@@H]12` (some centres not stated) was inactive: -2.89%; that for `COc1cc(CNC(=O)c2cnc(SC)nc2-c2ccccc2)cc(OC)c1OC` was inactive: -6.52%.
The value for `Cc1ccc(S(=O)(=O)C(CNS(=O)(=O)c2cc(F)ccc2F)c2cccs2)cc1` (configuration not stated) was inactive: -24.9%.
